# Measurements from the supplement of paper PMC8728848.
# This is one part of the list.
# How the values were obtained:
# Experiment in all cases: glycan array binding signal (z-score within array); higher = stronger binding
# Details in all cases: glycan notation: IUPAC condensed, linker removed
# [1] = target: Gal3S(b1-3)[Fuc(a1-4)]GlcNAc
# In short: (§1)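 Arrays were curated from the Consortium for Functional Glycomics database, 3228 in total, and kept only where the protein sequence was available. Binding is expressed as a within-array Z-score. This score was averaged across arrays of the same protein sequence at different concentrations or buffers and across linkers, and negative values can be read as non-binding.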
# Gal3S(b1-4)Glc = target: Gal3S(b1-4)Glc
# In short: as §1
# Gal3S(b1-4)Glc6S = target: Gal3S(b1-4)Glc6S
# In short: as §1
# Gal3S(b1-4)GlcNAc = target: Gal3S(b1-4)GlcNAc
# In short: as §1
# [2] = target: Gal3S(b1-4)[Fuc(a1-3)]Glc6S
# In short: as §1
# [3] = target: Gal3S(b1-4)[Fuc(a1-3)]GlcNAc
# In short: as §1
# [4] = target: Gal3S(b1-4)[Fuc(a1-3)]GlcNAc6S
# In short: as §1
# Gal3S4S(b1-4)GlcNAc = target: Gal3S4S(b1-4)GlcNAc
# In short: as §1
# Gal3S6S(b1-4)GlcNAc = target: Gal3S6S(b1-4)GlcNAc
# In short: as §1
# Gal3S6S(b1-4)GlcNAc6S = target: Gal3S6S(b1-4)GlcNAc6S
# In short: as §1
# Gal4S(b1-4)GlcNAc = target: Gal4S(b1-4)GlcNAc
# In short: as §1
# Gal4S6S(b1-4)GlcNAc = target: Gal4S6S(b1-4)GlcNAc
# In short: as §1
# Gal6P(b1-4)GlcNAc = target: Gal6P(b1-4)GlcNAc
# In short: as §1
# Gal6S(b1-3)GlcNAc = target: Gal6S(b1-3)GlcNAc
# In short: as §1
# Gal6S(b1-3)GlcNAc6S = target: Gal6S(b1-3)GlcNAc6S
# In short: as §1
# Gal6S(b1-4)Glc = target: Gal6S(b1-4)Glc
# In short: as §1
# Gal6S(b1-4)Glc6S = target: Gal6S(b1-4)Glc6S
# In short: as §1
# Gal6S(b1-4)GlcNAc = target: Gal6S(b1-4)GlcNAc
# In short: as §1
# Gal6S(b1-4)GlcNAc6S = target: Gal6S(b1-4)GlcNAc6S
# In short: as §1
# GalNAc(a1-3)Gal = target: GalNAc(a1-3)Gal
# In short: as §1
# GalNAc(a1-3)GalNAc = target: GalNAc(a1-3)GalNAc
# In short: as §1
# [5] = target: GalNAc(a1-3)GalNAc(b1-3)Gal(a1-4)Gal(b1-4)Glc
# In short: as §1
# [6] = target: GalNAc(a1-3)GalNAc(b1-3)Gal(a1-4)Gal(b1-4)GlcNAc
# In short: as §1
# GalNAc(b1-3)Gal = target: GalNAc(b1-3)Gal
# In short: as §1
# [7] = target: GalNAc(b1-3)Gal(a1-4)Gal(b1-4)GlcNAc
# In short: as §1
# [8] = target: GalNAc(b1-3)Gal(a1-4)Gal(b1-4)GlcNAc(b1-3)Gal(b1-4)Glc
# In short: as §1
# [9] = target: GalNAc(b1-3)Gal(a1-6)Gal(b1-4)Glc
# In short: as §1
# GalNAc(b1-3)GalNAc = target: GalNAc(b1-3)GalNAc
# In short: as §1
# GalNAc(b1-3)GlcNAc = target: GalNAc(b1-3)GlcNAc
# In short: as §1
# GalNAc(b1-4)Gal(b1-4)Glc = target: GalNAc(b1-4)Gal(b1-4)Glc
# In short: as §1
# GalNAc(b1-4)GlcNAc = target: GalNAc(b1-4)GlcNAc
# In short: as §1
# [10] = target: GalNAc(b1-4)GlcNAc(b1-2)Man
# In short: as §1
# [11] = target: GalNAc(b1-4)GlcNAc(b1-2)Man(a1-3)[GalNAc(b1-4)GlcNAc(b1-2)Man(a1-6)]Man(b1-4)GlcNAc(b1-4)GlcNAc
# In short: as §1
# [12] = target: GalNAc(b1-4)GlcNAc(b1-3)GalNAc(b1-4)GlcNAc
# In short: as §1
# GalNAc(b1-4)GlcNAc6S = target: GalNAc(b1-4)GlcNAc6S
# In short: as §1
# GalNAc(b1-6)GalNAc = target: GalNAc(b1-6)GalNAc
# In short: as §1
# GalNAc3S(b1-4)GlcNAc = target: GalNAc3S(b1-4)GlcNAc
# In short: as §1
binder,measurement,setting,value
"PVL (Psathyrella velutina), Q309D1_9AGAR (protein) MSVVVISQALPVPTRIPGVADLVGFGNGGVYIIRNSLLIQVVKVINNFGYDAGGWRVEKHVRLLADTTGDNQPDVVGFGENGVWISTNNGNNTFVDPPKMVLANFAYAAGGWRVEKHIRFMADLRKTGRADIVGFGDGGIYISRNNGGGQFAPAQLALNNFGYAQGWRLDRHLRFLADVTGDGLLDVVGFGENQVYIARNSGNGTFQPAQAVVNNFCIGAGGWTISAHPRVVADLTGDRKADILGFGVAGVYTSLNNGNGTFGAVNLVLKDFGVNSGWRVEKHVRCVSSLTNKKVGDIIGFGDAGVYVALNNGNGTFGPVKRVIDNFGYNQGWRVDKHPRFVVDLTGDGCADIVGFGENSVWACMNKGDGTFGPIMKLIDDMTVSKGWTLQKTVRYAANLYL",glycan array binding signal (z-score),[1],-0.366
same,glycan array binding signal (z-score),Gal3S(b1-4)Glc,-0.361
same,glycan array binding signal (z-score),Gal3S(b1-4)Glc6S,-0.368
same,glycan array binding signal (z-score),Gal3S(b1-4)GlcNAc,-0.367
same,glycan array binding signal (z-score),[2],-0.351
same,glycan array binding signal (z-score),[3],-0.357
same,glycan array binding signal (z-score),[4],-0.344
same,glycan array binding signal (z-score),Gal3S4S(b1-4)GlcNAc,-0.344
same,glycan array binding signal (z-score),Gal3S6S(b1-4)GlcNAc,-0.33
same,glycan array binding signal (z-score),Gal3S6S(b1-4)GlcNAc6S,-0.286
same,glycan array binding signal (z-score),Gal4S(b1-4)GlcNAc,-0.188
same,glycan array binding signal (z-score),Gal4S6S(b1-4)GlcNAc,-0.324
same,glycan array binding signal (z-score),Gal6P(b1-4)GlcNAc,-0.365
same,glycan array binding signal (z-score),Gal6S(b1-3)GlcNAc,-0.361
same,glycan array binding signal (z-score),Gal6S(b1-3)GlcNAc6S,-0.354
same,glycan array binding signal (z-score),Gal6S(b1-4)Glc,-0.36
same,glycan array binding signal (z-score),Gal6S(b1-4)Glc6S,-0.403
same,glycan array binding signal (z-score),Gal6S(b1-4)GlcNAc,-0.361
same,glycan array binding signal (z-score),Gal6S(b1-4)GlcNAc6S,-0.359
same,glycan array binding signal (z-score),GalNAc(a1-3)Gal,-0.363
same,glycan array binding signal (z-score),GalNAc(a1-3)GalNAc,-0.393
same,glycan array binding signal (z-score),[5],-0.352
same,glycan array binding signal (z-score),[6],-0.348
same,glycan array binding signal (z-score),GalNAc(b1-3)Gal,-0.243
same,glycan array binding signal (z-score),[7],-0.379
same,glycan array binding signal (z-score),[8],-0.269
same,glycan array binding signal (z-score),[9],-0.308
same,glycan array binding signal (z-score),GalNAc(b1-3)GalNAc,1.31
same,glycan array binding signal (z-score),GalNAc(b1-3)GlcNAc,-0.367
same,glycan array binding signal (z-score),GalNAc(b1-4)Gal(b1-4)Glc,-0.367
same,glycan array binding signal (z-score),GalNAc(b1-4)GlcNAc,-0.225
same,glycan array binding signal (z-score),[10],-0.338
same,glycan array binding signal (z-score),[11],-0.355
same,glycan array binding signal (z-score),[12],-0.319
same,glycan array binding signal (z-score),GalNAc(b1-4)GlcNAc6S,-0.343
same,glycan array binding signal (z-score),GalNAc(b1-6)GalNAc,-0.317
same,glycan array binding signal (z-score),GalNAc3S(b1-4)GlcNAc,-0.357
